In patent US20210032313A1 (Daiichi Sankyo, published 2021):
Substitutions are numbered along the chain they refer to.

T1: human KLK5 (human, UniProt Q9Y337 67-293)
T1 sequence: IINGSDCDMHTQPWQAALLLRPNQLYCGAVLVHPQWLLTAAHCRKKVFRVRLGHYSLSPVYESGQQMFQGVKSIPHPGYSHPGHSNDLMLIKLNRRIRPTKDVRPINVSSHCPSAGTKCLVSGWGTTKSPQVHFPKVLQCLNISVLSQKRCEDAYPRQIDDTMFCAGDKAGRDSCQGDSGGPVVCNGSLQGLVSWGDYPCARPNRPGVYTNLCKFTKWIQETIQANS

T2: human KLK14 (human, UniProt Q9P0G3 25-251)
T2 sequence: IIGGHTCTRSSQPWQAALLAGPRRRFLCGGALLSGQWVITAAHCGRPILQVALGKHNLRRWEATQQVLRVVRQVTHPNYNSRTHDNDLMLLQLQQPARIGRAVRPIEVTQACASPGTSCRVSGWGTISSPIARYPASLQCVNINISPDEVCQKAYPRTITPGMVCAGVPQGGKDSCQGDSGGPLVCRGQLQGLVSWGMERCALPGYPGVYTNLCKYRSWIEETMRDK

T3: mouse KLK5 (mouse)
T3 chain: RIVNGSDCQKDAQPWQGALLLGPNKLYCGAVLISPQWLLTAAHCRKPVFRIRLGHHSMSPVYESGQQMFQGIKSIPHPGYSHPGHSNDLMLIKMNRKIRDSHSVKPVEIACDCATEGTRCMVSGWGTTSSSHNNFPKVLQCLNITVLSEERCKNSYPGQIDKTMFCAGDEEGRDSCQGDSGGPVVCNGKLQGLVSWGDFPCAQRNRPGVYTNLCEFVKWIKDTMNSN

T4: mouse KLK14 (mouse, UniProt Q8CGR5 24-250)
T4 sequence: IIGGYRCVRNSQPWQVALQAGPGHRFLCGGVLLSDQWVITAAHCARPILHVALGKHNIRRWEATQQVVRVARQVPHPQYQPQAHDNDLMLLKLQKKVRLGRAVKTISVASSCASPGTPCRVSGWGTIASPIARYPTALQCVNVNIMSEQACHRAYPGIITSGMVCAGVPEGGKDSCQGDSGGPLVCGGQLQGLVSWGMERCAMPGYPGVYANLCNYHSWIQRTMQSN

B1: KLK5/KLK14 inhibitory peptide Fc fusion D3-K50015-Fc (Fc fusion)
chain: DDDGPQFGLFSKYRTPNCYDTTTHYCSREYDPVCGSDMSTYANECTLCMKIREGGHNIKIIRNGPC[gap - human IgG1 Fc]
B2: KLK5 inhibitory peptide Fc fusion D3-K51090-Fc (Fc fusion)
chain: B1 chain with Y19D, D20E, T21I, T22G, T23K, H24Y, Y25G, S27G, E29S
B3: KLK5 inhibitory peptide Fc fusion D3-K50062-Fc (Fc fusion)
chain: B1 chain with Y19Q, D20Q, T21Y, T22R, T23E, H24L, Y25G, S27G, E29Q
B4: KLK5 inhibitory peptide Fc fusion D3-K50016dN-Fc (Fc fusion)
chain: B1 chain with Y19G, D20Q, T21W, T22Q, T23Y, H24S, Y25S, S27D, E29V
B5: KLK5 inhibitory peptide Fc fusion D3-K50032dN-Fc (Fc fusion)
chain: B1 chain with Y19L, D20Q, T21W, T23D, Y25Q, S27E, E29D
B6: KLK5 inhibitory peptide Fc fusion D3-K50055-Fc (Fc fusion)
chain: B1 chain with Y19A, D20N, T22M, T23K, H24Q, Y25D, S27T
B7: KLK5 inhibitory peptide Fc fusion D3-K51034-Fc (Fc fusion)
chain: B1 chain with Y19G, D20R, T21Y, H24G, Y25G, S27N, R28K, D31E
B8: KLK5 inhibitory peptide Fc fusion D3-K51072-Fc (Fc fusion)
chain: B1 chain with Y19Q, D20E, T21D, T22M, H24E, S27A, E29D, Y30F
B9: KLK5/KLK7 inhibitory peptide Fc fusion D3-K51005-Fc (Fc fusion)
chain: B1 chain with Y19M, D20Q, T21H, T22A, T23R, H24Q, Y25G, S27H, R28Y, E29D
B10: KLK5/KLK7 inhibitory peptide Fc fusion D3-K51028-Fc (Fc fusion)
chain: B1 chain with D20Q, T21Y, T22R, T23S, H24K, Y25G, S27T, R28H
B11: KLK5/KLK7 inhibitory peptide Fc fusion D3-K51057-Fc (Fc fusion)
chain: DDDGPQFGLFSKYRTPNCGTMQGSGCTYHYEPVCGSDMSTYANECTLCMKIREGGHNIKIIRNGPC[gap - human IgG1 Fc]
B12: KLK5/KLK14 inhibitory peptide Fc fusion D3-K51069dN-Fc (Fc fusion)
chain: B1 chain with Y19G, D20Q, T21V, T22V, T23E, H24T, S27N, E29D
B13: KLK5 inhibitory peptide Fc fusion D3-K50098dN-Fc (Fc fusion)
chain: B1 chain with Y19G, D20S, T21Q, T23L, H24G, Y25S
B14: KLK5/KLK7 inhibitory peptide Fc fusion D3-K50031-Fc (Fc fusion)
chain: B11 chain with T20E, M21Y, Q22K, S24R, T27Y, E31D
B15: KLK5 inhibitory peptide Fc fusion D1-K50055-Fc (Fc fusion)
chain: DGPQFGLFSKYRTPNCANTMKQDCTREYDPVCGSDMSTYANECTLCMKIREGGHNIKIIRNGPC[gap - human IgG1 Fc]

The binders below were run against T1, human KLK5 (assay: cell-based or functional assay).

| Binder | IC50(nM) for hKLK5 [nM] |
| --- | --- |
| B1 | 3.1 |
| B2 | 4.6 |
| B3 | 4.3 |
| B4 | 4.3 |
| B5 | 3.9 |
| B6 | 3.7 |
| B7 | 5.7 |
| B8 | 4.5 |
| B9 | 8.6 |
| B10 | 4.5 |
| B11 | 12 |
| B12 | 4.5 |
| B13 | 4.3 |
| B14 | 9.5 |
| B15 | 5.8 |

These binders were tested against human KLK7 (human, UniProt P49862 30-253) (assay: cell-based or functional assay).
Sequence of UniProt P49862 (P49862 30-253): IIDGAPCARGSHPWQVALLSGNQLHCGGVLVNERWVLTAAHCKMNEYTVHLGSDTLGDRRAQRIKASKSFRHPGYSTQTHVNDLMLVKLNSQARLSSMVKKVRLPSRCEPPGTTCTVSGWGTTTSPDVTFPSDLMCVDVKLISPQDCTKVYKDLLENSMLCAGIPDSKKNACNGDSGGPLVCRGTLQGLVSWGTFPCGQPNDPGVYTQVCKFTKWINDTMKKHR

| Binder | IC50(nM) for hKLK7 [nM] |
| --- | --- |
| B9 | 28 |
| B10 | 220 |
| B11 | 18 |
| B12 | > 1000 |

The binders below were run against T2, human KLK14 (assay: cell-based or functional assay).

| Binder | IC50(nM) for hKLK14 [nM] |
| --- | --- |
| B2 | 350 |
| B3 | 190 |
| B4 | > 1000 |
| B6 | 340 |
| B7 | 960 |
| B8 | 260 |
| B11 | > 1000 |
| B12 | 42 |
| B13 | 210 |
| B14 | > 1000 |
| B15 | > 1000 |

Molecular target: T3, mouse KLK5
Assay: cell-based or functional assay

| Binder | IC50(nM) for mKLK5 [nM] |
| --- | --- |
| B1 | 4.4 |
| B2 | 5.1 |
| B3 | 5.4 |
| B4 | 35 |
| B5 | 26 |
| B6 | 6.8 |
| B7 | 39 |
| B8 | 50 |
| B9 | 330 |
| B10 | 16 |
| B11 | 600 |
| B12 | 6.8 |
| B13 | 6.8 |
| B14 | 270 |
| B15 | 6.3 |

Each binder was assayed against mouse KLK7 (mouse, UniProt Q91VE3 26-249) (assay: cell-based or functional assay).
Sequence of UniProt Q91VE3 (Q91VE3 26-249): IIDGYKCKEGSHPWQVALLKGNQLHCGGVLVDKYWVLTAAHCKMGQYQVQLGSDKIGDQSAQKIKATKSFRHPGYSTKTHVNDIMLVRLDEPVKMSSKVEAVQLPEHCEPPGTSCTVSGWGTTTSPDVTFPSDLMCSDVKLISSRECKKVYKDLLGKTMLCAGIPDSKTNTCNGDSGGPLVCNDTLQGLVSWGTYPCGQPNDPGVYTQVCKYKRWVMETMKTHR

| Binder | IC50(nM) for mKLK7 [nM] |
| --- | --- |
| B1 | 340 |
| B2 | 730 |
| B3 | > 1000 |
| B4 | > 1000 |
| B5 | > 1000 |
| B6 | > 1000 |
| B7 | > 1000 |
| B8 | > 1000 |
| B9 | 37 |
| B10 | 110 |
| B11 | 24 |
| B12 | 410 |
| B13 | > 1000 |
| B14 | 6.3 |
| B15 | > 1000 |

These binders were tested against T4, mouse KLK14 (assay: cell-based or functional assay).

| Binder | IC50(nM) for mKLK14 [nM] |
| --- | --- |
| B1 | 48 |
| B2 | 510 |
| B3 | > 1000 |
| B4 | > 1000 |
| B5 | > 1000 |
| B6 | > 1000 |
| B7 | > 1000 |
| B8 | > 1000 |
| B9 | 240 |
| B10 | > 1000 |
| B11 | 380 |
| B12 | 24 |
| B13 | 350 |
| B14 | 300 |
| B15 | > 1000 |

These binders were tested against T1, human KLK5 (assay: inhibition of human KLK5 (10 nM) on Boc-Val-Pro-Arg-AMC (100 µM), Morrison equation).
Description: The inhibitory activity of the KLK5 inhibitory peptide Fc fusions against human KLK5 was evaluated, and the inhibition constant Kᵢ was calculated. A substrate peptide Boc-Val-Pro-Arg-AMC (R&D Systems, Inc., ES011) was dissolved in DMSO to 10 mM and diluted with an assay buffer (50 mM Tris-HCl, 150 mM NaCl, pH 8.0) for use at a final concentration of 25 to 200 μM. 25 μL each of human KLK5 and the KLK5 inhibitory peptide Fc fusion diluted with the assay buffer were mixed, followed by a reaction at 37° C. for 20 minutes. Thereafter, 50 μL of a substrate diluted with the assay buffer was added thereto, and the fluorescence signal (excitation at 380 nm/emission at 460 nm) was measured using Enspire.
The degradation rate of the substrate peptide by each inhibitory peptide Fc fusion at each concentration was calculated, and the human KLK5 inhibitory activity of each inhibitory peptide Fc fusion was evaluated, with the degradation rate of the inhibitory peptide Fc fusion at a concentration of 0 nM taken as 100% (FIG. 102). Using GraphPad Prism (version 5.0; GraphPad Software Inc.), the maximum reaction rate Vₘₐₓ and the Michaelis constant Kₘ were calculated according to the Michaelis-Menten equation at an enzyme concentration of 10 nM. […] The average value of three independent experiments was used to calculate the Kᵢ value.

| Binder | Ki [nM] |
| --- | --- |
| B4 | 0.36 |
| B5 | 0.44 |
| B6 | 0.19 |
| B8 | 0.36 |

The binders below were run against T1, human KLK5 (assay: SPR, BIAcore T200; Fc fusion captured by anti-human IgG (Fc), KLK5 as analyte; single cycle kinetics, 1:1 model).
Description: In order to measure the binding affinity of a KLK5 inhibitory peptide Fc fusion prepared in (5-2), which will be described below, surface plasmon resonance analysis was conducted using BIAcore T 200 (GE healthcare).
The KLK5 inhibitory peptide Fc fusion was captured at a flow rate of 20 μL/min by Sensor Chip CM5 (GE healthcare) on which an anti-human IgG (Fc) antibody was immobilized to immobilize about 30 to 50 RU. Thereafter, KLK5, serially diluted 2-fold with HBS-EP (0.625 to 10 nM), was added thereto as an analyte at a flow rate of 30 μL/min. In the BIAcore T 200 Evaluation software (version 2.0), kon and koff were calculated by analysis using Single cycle kinetics in a simple one-to-one Langmuir binding model. The dissociation constant KD was calculated as a ratio of koff/kₒₙ. Further, the binding activity of KLK5 to multiple KLK5 inhibitory peptide Fc fusions was measured by regenerating Sensor Chip CM5 on which the anti-human IgG (Fc) antibody was immobilized using a Regeneration buffer attached to a Human Antibody Capture Kit (GE healthcare) and repeatedly capturing the KLK5 inhibitory peptide Fc fusion.

| Binder | Kd [nM] | koff [s⁻¹] | kon [M⁻¹ s⁻¹] |
| --- | --- | --- | --- |
| B1 | 0.00338 | 3.52e-06 | 1.04e+06 |
| B2 | 0.0112 | 7.86e-06 | 700000 |
| B3 | 0.0115 | 6.52e-06 | 566000 |
| B4 | 0.00781 | 5.6e-06 | 718000 |
| B5 | 0.00525 | 5.69e-06 | 1.08e+06 |
| B6 | 0.00422 | 2.32e-06 | 549000 |
| B7 | 0.0103 | 2.93e-06 | 283000 |
| B8 | 0.00748 | 1.68e-06 | 225000 |
| B9 | 0.133 | 1.96e-05 | 147000 |
| B10 | 0.00335 | 1.81e-06 | 539000 |
| B11 | 0.206 | 1.79e-05 | 86900 |
| B12 | 0.00393 | 2.81e-06 | 714000 |
| B13 | < 0.00176 | < 1.62e-06 | 922000 |
| B14 | < 0.0114 | < 1e-06 | 88100 |
